# Reference: the supplement of paper PMC9046079
# Where a name gives a salt, the structure may show the parent alone. ± gives the standard deviation of the averaged measurements. The list shows a part of the results.
# Tests used:
# [1] = tested on: murine small intestinal organoids (ENR+CD Paneth differentiation); assay: cellular ATP (CellTiter-Glo 3D) relative to plate median (log10 fold change); higher = more viable cells; details: 6 d
# [2] = tested on: murine small intestinal organoids (ENR+CD Paneth differentiation); assay: carbachol-stimulated secreted lysozyme activity relative to plate median (log10 fold change); higher = more Paneth cell lysozyme secretion; details: 6 d, carbachol 10 µM
# [3] = tested on: murine small intestinal organoids (ENR+CD Paneth differentiation); assay: basal (non-stimulated) secreted lysozyme activity relative to plate median (log10 fold change); higher = more Paneth cell lysozyme secretion; details: 6 d
# 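Throughout, for basal (non-stimulated) secreted lysozyme activity relative to plate median: ISC-enriched organoid precursors grown as 2.5D pseudo-monolayer on Matrigel, compound given on day 0 and day 3, plate values LOESS-normalized before median fold change, three murine donors.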
# 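Throughout, for cellular ATP (CellTiter-Glo 3D) relative to plate median: 2.5D pseudo-monolayer culture of ISC-enriched organoids partly embedded atop Matrigel, compound added on day 0 and again on day 3, per-plate LOESS correction before median fold change.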
SMILES,cellular ATP (log10) ([1]; 0.08 µM),cellular ATP (log10) ([1]; 0.4 µM),cellular ATP (log10) ([1]; 2 µM),cellular ATP (log10) ([1]; 10 µM),carbachol-stimulated secreted lysozyme activity (log10) ([2]; 0.08 µM),carbachol-stimulated secreted lysozyme activity (log10) ([2]; 0.4 µM),carbachol-stimulated secreted lysozyme activity (log10) ([2]; 2 µM),carbachol-stimulated secreted lysozyme activity (log10) ([2]; 10 µM),basal (log10) ([3]; 0.08 µM),basal (log10) ([3]; 0.4 µM),basal (log10) ([3]; 2 µM),basal (log10) ([3]; 10 µM)
FC(F)(F)c1ccc(/C=C/c2nc(COc3ccc(CCCCn4ccnn4)cc3)co2)cc1 [Mubritinib (TAK 165)],-0.524 ± 0.2,-0.34 ± 0.24,-0.53 ± 0.18,-0.519 ± 0.32,-0.138 ± 0.0081,-0.17 ± 0.17,-0.334 ± 0.059,-0.281 ± 0.0048,-0.0574 ± 0.063,-0.194 ± 0.14,-0.224 ± 0.076,-0.24 ± 0.02
NC(=O)c1cccc(-c2cccc(OC(=O)NC3CCCCC3)c2)c1,0.303 ± 0.25,0.0123 ± 0.27,0.0999 ± 0.17,-0.228 ± 0.32,0.0157 ± 0.082,0.0578 ± 0.042,0.0597 ± 0.069,-0.129 ± 0.19,0.0479 ± 0.069,-0.0165 ± 0.08,-0.00833 ± 0.09,-0.077 ± 0.12
CCCN[C@H]1CCc2nc(N)sc2C1 [Pramipexole],0.115 ± 0.17,0.135 ± 0.21,0.0673 ± 0.11,0.194 ± 0.23,-0.00162 ± 0.012,0.147 ± 0.23,0.157 ± 0.24,0.074 ± 0.03,0.0357 ± 0.11,0.0407 ± 0.028,0.0106 ± 0.067,0.116 ± 0.13
Cc1noc(-c2ccc(CSCCC(=O)O)cc2)c1NC(=O)OC(C)c1ccccc1Cl (stereo unspecified),-0.0508 ± 0.18,-0.00214 ± 0.067,-0.0776 ± 0.17,-0.165 ± 0.13,-0.0125 ± 0.09,0.136 ± 0.26,0.0188 ± 0.028,-0.114 ± 0.093,0.000572 ± 0.031,0.117 ± 0.18,-0.00788 ± 0.043,-0.0376 ± 0.095
C[C@@H](O[C@H]1OCCN(Cc2n[nH]c(=O)[nH]2)[C@H]1c1ccc(F)cc1)c1cc(C(F)(F)F)cc(C(F)(F)F)c1 [Aprepitant],0.313 ± 0.17,0.403 ± 0.18,0.145 ± 0.15,0.0505 ± 0.22,0.191 ± 0.17,0.1 ± 0.024,-0.0386 ± 0.0042,-0.166 ± 0.032,0.0965 ± 0.1,0.0611 ± 0.033,0.00498 ± 0.029,-0.0895 ± 0.038
C[C@@H](Oc1cc(-n2cnc3ccc(CN4CCN(C)CC4)cc32)sc1C(N)=O)c1ccccc1C(F)(F)F,0.16 ± 0.092,-0.154 ± 0.041,-0.628 ± 0.19,-0.621 ± 0.11,0.084 ± 0.061,-0.105 ± 0.1,-0.427 ± 0.029,-0.477 ± 0.024,0.0784 ± 0.083,-0.0958 ± 0.051,-0.246 ± 0.094,-0.287 ± 0.065
Clc1ccccc1CN1CCc2sccc2C1 [Ticlopidine HCl],-0.0887 ± 0.1,0.0364 ± 0.14,-0.186 ± 0.21,-0.14 ± 0.21,0.137 ± 0.13,0.0277 ± 0.1,0.0279 ± 0.12,0.0681 ± 0.0052,-0.000829 ± 0.046,0.0152 ± 0.024,-0.00343 ± 0.065,0.154 ± 0.33
Nc1cccc2c1CN(C1CCC(=O)NC1=O)C2=O (stereo unspecified) [Lenalidomide (CC-5013)],0.0462 ± 0.051,-0.0155 ± 0.14,-0.25 ± 0.18,-0.316 ± 0.23,0.0769 ± 0.11,0.239 ± 0.077,0.0297 ± 0.011,-0.0552 ± 0.083,0.147 ± 0.06,0.0992 ± 0.089,0.0706 ± 0.092,-0.0414 ± 0.07
Cc1c(C(=O)NN2CCCCC2)nn(-c2ccc(Cl)cc2Cl)c1-c1ccc(Cl)cc1 [Rimonabant],0.275 ± 0.34,0.179 ± 0.22,0.25 ± 0.32,-0.0132 ± 0.25,-0.0719 ± 0.14,0.0588 ± 0.011,-0.132 ± 0.15,-0.0173 ± 0.16,0.0461 ± 0.15,-0.00226 ± 0.061,-0.0434 ± 0.17,0.0717 ± 0.15
c1ccc(CC2=NCCN2)cc1 [Tolazoline HCl],-0.0453 ± 0.53,0.25 ± 0.22,0.0771 ± 0.065,-0.0294 ± 0.075,0.0724 ± 0.19,0.0481 ± 0.12,-0.0254 ± 0.018,-0.066 ± 0.071,0.131 ± 0.11,0.0861 ± 0.14,0.0618 ± 0.13,0.0834 ± 0.29
CC(C)NC[C@@H](C(=O)N1CCN(c2ncnc3c2[C@H](C)C[C@H]3O)CC1)c1ccc(Cl)cc1,0.0416 ± 0.054,0.118 ± 0.049,0.184 ± 0.13,-0.0997 ± 0.16,0.0145 ± 0.04,0.0459 ± 0.15,-0.111 ± 0.018,-0.376 ± 0.0081,0.0358 ± 0.071,0.0539 ± 0.11,-0.0775 ± 0.095,-0.185 ± 0.11
Cc1nn(-c2ccccc2)c(C)c1C=NN1CCN(Cc2ccccc2)CC1,0.283 ± 0.25,0.246 ± 0.36,0.0446 ± 0.43,-0.0595 ± 0.091,-0.00112 ± 0.14,0.113 ± 0.17,0.145 ± 0.15,-0.147 ± 0.059,0.0686 ± 0.095,0.0061 ± 0.056,0.125 ± 0.086,-0.0636 ± 0.037
O=C(O)c1ccc(Nc2ncc3c(n2)-c2ccc(Cl)cc2C(c2c(F)cccc2F)=NC3)cc1,0.0264 ± 0.16,0.0139 ± 0.24,-0.465 ± 0.32,-0.498 ± 0.17,0.0924 ± 0.057,0.292 ± 0.025,-0.119 ± 0.12,-0.269 ± 0.026,0.0659 ± 0.038,0.00756 ± 0.063,-0.0997 ± 0.081,-0.112 ± 0.069
COc1ccc(C(=O)Nc2sc3c(c2C(N)=O)CCCC3)cc1OC,0.176 ± 0.062,0.263 ± 0.13,0.0358 ± 0.14,-0.139 ± 0.51,0.115 ± 0.19,0.106 ± 0.11,0.0747 ± 0.047,0.043 ± 0.079,0.0709 ± 0.19,0.114 ± 0.02,0.0513 ± 0.072,0.00735 ± 0.023
CC(C)(C#N)c1cc(Cn2cncn2)cc(C(C)(C)C#N)c1 [Anastrozole],-0.117 ± 0.55,0.0238 ± 0.34,-0.0583 ± 0.17,-0.499 ± 0.55,0.0736 ± 0.044,0.15 ± 0.071,-0.0104 ± 0.12,-0.0983 ± 0.11,0.0351 ± 0.053,0.106 ± 0.064,-0.003 ± 0.073,-0.0666 ± 0.065
CC(C)[C@H](O)C(=O)N[C@@H](C)C(=O)N[C@@H]1C(=O)N(C)CCc2ccccc21,-0.0244 ± 0.35,-0.202 ± 0.14,-0.00979 ± 0.31,-0.678 ± 0.85,-0.106 ± 0.2,-0.0992 ± 0.15,-0.112 ± 0.011,-0.0827 ± 0.08,-0.0426 ± 0.084,-0.0257 ± 0.067,-0.0787 ± 0.049,-0.0551 ± 0.086
O=C(/C=C/c1ccc(O)c(O)c1)OCCc1ccccc1 [Caffeic Acid Phenethyl Ester],0.262 ± 0.22,-0.0107 ± 0.28,-0.0638 ± 0.19,-0.511 ± 0.54,0.258 ± 0.25,0.081 ± 0.063,-0.0445 ± 0.18,-0.148 ± 0.19,0.0534 ± 0.011,0.167 ± 0.23,0.0897 ± 0.19,-0.026 ± 0.11
O=C(Nc1cccc(Nc2ncc(Br)c(NCCc3cnc[nH]3)n2)c1)N1CCCC1,0.0431 ± 0.23,0.0541 ± 0.095,-0.246 ± 0.15,-0.397 ± 0.43,-0.00103 ± 0.082,0.0196 ± 0.2,-0.231 ± 0.067,-0.361 ± 0.026,0.0103 ± 0.084,0.0173 ± 0.085,-0.0886 ± 0.075,-0.196 ± 0.088
